Laboratory results: PubChem BioAssay AID2147 (National Center for Advancing Translational Sciences (NCATS), 2009)
Hit rate of the full screen: of about 230,000 compounds, about 3,600 (1.6%) were called active. Inconclusive means that the source gave no clear call. Such entries were picked first, then a sample of the others. Calls come from the whole dose curve; as a rule, active = well fitted inhibition curve with a large enough effect (not every such curve was filed as active); inconclusive = small, poorly fitted or top-dose-only effect, or another doubt; inactive = no such curve, though single readings can be large or run the other way. Where the call is inconclusive, the potency comes from a doubtful curve fit.

Each compound was assayed against Lysine-specific demethylase 4E (Homo sapiens) (UniProt B2RXH2) (assay: qHTS Assay for Inhibitors of Human Jumonji Domain Containing 2E (JMJD2E)). Conditions: JMJD2E catalytic domain, FDH-coupled NADH fluorescence (FDH is formaldehyde dehydrogenase); series mostly up to 57.1 µM; activity change, negative = inhibition: at the top concentration.
Note: nearly all actives have a fitted effect of over 50% in size.
Potency is the fitted concentration of half-maximal effect; tags give direction and shape of the fitted curve.
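Throughout, for activity change, negative = inhibition: 0% = wells with enzyme and -100% = buffer wells without enzyme.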

Chain of UniProt B2RXH2 (B2RXH2 whole entry, looked up, the tested form may be a part): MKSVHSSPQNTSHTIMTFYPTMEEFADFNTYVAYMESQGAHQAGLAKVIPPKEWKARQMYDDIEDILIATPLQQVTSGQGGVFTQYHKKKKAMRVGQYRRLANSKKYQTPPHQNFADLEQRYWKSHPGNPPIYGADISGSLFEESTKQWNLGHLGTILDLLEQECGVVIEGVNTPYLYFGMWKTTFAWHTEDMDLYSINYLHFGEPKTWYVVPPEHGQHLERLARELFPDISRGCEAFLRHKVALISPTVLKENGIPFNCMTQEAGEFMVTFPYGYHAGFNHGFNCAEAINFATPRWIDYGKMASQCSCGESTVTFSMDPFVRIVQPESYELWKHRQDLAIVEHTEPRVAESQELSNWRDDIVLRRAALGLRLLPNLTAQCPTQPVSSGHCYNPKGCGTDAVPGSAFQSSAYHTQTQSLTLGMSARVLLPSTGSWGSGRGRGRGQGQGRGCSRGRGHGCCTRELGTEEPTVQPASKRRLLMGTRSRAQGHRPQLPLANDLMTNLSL

Compound	Potency	activity change, negative = inhibition
Cc1nn2c(N3CCCC3)c3c(nc2c1-c1ccccc1)CCC3	inconclusive: 31.6 µM [inhibitor, partial curve]	–
Cc1nn(C)c(Sc2ccccc2N)c1[N+](=O)[O-]	inconclusive: 39.8 µM [inhibitor, single point]	–
COc1cccc2c(=O)n(CC(=O)Nc3ccccc3)ccc12	inconclusive: 28.2 µM [inhibitor, single point]	–
CC(=O)c1sc2nc(=O)c(C)nn2c1C	inconclusive: 39.8 µM [inhibitor, single point]	–
Cc1ccc(NC(=O)Cn2c3ccc(F)cc3c3nc4n(c(=O)c32)CCS4)cc1F	inconclusive: 35.5 µM [inhibitor, single point]	–
COc1ccc(Oc2nc3c(c(=O)n(C)c(=O)n3C)n2Cc2ccccc2)cc1	–	inactive: -2.98%
COc1ccc(-c2cc(C(F)F)n3ncc(C(=O)NCC4CCCO4)c3n2)cc1 (centres undefined)	inconclusive: 25.1 µM [inhibitor, partial curve]	–
Cc1ccc(C)c(S(=O)(=O)NCC(=O)Nc2sc3c(c2C(N)=O)CCC(C)C3)c1 (centres undefined)	inconclusive: 28.2 µM [inhibitor, partial curve]	–
CN(C)S(=O)(=O)c1ccc(C(=O)Nc2cccc(S(=O)(=O)NC3=NCCC3)c2)cc1	–	inactive: 4.34%
Cc1ccccc1S(=O)(=O)Cc1ccc(C(=O)N2CCN(c3cccc(C)c3C)CC2)o1	–	inactive: -0.128%
O=C(On1c(-c2ccccc2)nc2ccccc2c1=O)c1ccco1	active: 20 µM	–
Cc1cc2c(C)cc(=O)[nH]c2cc1NC(=O)CCl	inconclusive: 35.5 µM [inhibitor, single point]	–
Cc1ccc(Cl)cc1NC1=C/C(=N\S(=O)(=O)c2cccs2)c2ccccc2C1=O	inconclusive: 2.24 µM [inhibitor, full curve]	–
Cc1ccccc1NC(=O)Cn1nnc(S(=O)(=O)c2ccc(C(C)(C)C)cc2)c1N	–	inactive: 3.32%
COc1cc2c(cc1OC)-c1cc(NC3CCCCCCC3)nc(=O)n1CC2	inconclusive: 31.6 µM [inhibitor, single point]	–
CC(=O)OC1C(N2CCCCC2)c2c(ccc(/C=C/C(=O)N3CCCCC3)c2O)OC1(C)C (centres undefined)	active: 7.08 µM	–
Cc1nnc(SCC(=O)NCc2ccco2)[nH]c1=O	inconclusive: 39.8 µM [inhibitor, single point]	–
Cc1nn(CCc2nc(-c3ccco3)cs2)c2[nH]c(=O)cc(C(F)(F)F)c12	inconclusive: 22.4 µM [inhibitor, partial curve]	–
Cc1ccc(NC(=O)CN2c3cccc4cccc(c34)S2(=O)=O)cc1S(=O)(=O)N1CCOCC1	inconclusive: 28.2 µM [inhibitor, partial curve]	–
